# Measurements published in PMC4336329 (PLoS ONE, 2015).
# In all, about 310,000 compounds went through this assay and about 14,000 (4.5%) showed an effect of 50% or more. The effect is printed as a negative number. This is one part of the list.
# Biological target: human ether-à-go-go-related gene (hERG) potassium channel (human, UniProt Q12809)
# Assay: primary screen, population patch clamp on CHO cells stably expressing hERG
# 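Also: peak tail current of the secondary pulse compared with the same well before compound.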
# Chain of human ether-à-go-go-related gene (hERG) potassium channel (Q12809 whole entry, looked up): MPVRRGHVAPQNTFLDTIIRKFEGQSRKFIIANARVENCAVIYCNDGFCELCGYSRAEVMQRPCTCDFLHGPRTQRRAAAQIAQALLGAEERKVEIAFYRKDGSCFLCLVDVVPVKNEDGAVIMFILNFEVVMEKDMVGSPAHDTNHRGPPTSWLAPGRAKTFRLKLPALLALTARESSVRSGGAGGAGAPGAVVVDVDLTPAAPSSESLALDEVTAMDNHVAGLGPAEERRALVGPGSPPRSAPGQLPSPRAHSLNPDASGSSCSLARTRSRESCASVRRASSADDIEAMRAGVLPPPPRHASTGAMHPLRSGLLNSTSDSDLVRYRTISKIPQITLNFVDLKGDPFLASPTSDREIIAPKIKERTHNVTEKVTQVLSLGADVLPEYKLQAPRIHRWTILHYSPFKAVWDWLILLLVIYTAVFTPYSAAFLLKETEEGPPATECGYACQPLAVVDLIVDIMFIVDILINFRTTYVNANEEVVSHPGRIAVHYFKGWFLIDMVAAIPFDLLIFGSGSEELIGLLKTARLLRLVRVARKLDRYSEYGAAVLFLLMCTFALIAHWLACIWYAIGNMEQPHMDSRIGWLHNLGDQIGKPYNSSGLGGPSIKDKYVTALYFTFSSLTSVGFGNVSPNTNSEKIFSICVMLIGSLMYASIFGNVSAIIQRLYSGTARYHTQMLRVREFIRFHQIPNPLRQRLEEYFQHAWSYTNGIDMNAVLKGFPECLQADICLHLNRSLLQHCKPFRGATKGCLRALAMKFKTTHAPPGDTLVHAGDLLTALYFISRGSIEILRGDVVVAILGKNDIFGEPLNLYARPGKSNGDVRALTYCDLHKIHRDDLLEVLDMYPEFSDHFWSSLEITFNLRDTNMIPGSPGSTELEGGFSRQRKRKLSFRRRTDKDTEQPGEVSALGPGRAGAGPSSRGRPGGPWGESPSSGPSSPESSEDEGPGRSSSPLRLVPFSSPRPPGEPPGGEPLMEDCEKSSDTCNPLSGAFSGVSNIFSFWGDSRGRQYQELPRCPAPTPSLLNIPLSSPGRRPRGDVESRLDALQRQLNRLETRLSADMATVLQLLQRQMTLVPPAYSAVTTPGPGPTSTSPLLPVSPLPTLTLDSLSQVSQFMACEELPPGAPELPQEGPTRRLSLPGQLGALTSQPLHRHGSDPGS
row,SMILES,"hERG current change (%, negative = inhibition) at 10uM [%]"
1,CSCc1nnc(NC(=O)c2ccc(S(=O)(=O)N3CCCCC3C)cc2)o1 (centres unmarked),-2.38
2,CCCNC(=O)c1ccc(COc2ccc(C)cc2)o1,7.44
3,O=C(CNS(=O)(=O)c1ccccc1)Nc1cccc([N+](=O)[O-])c1,-26.2
4,COc1ccccc1N1CCN(/N=C/c2cc([N+](=O)[O-])ccc2Cl)CC1,37.3
5,COC(=O)c1c(C(=O)OC)c2ccccn2c1C(=O)c1ccccc1,6.74
6,O=C(N/N=C/c1c(Cl)cccc1Cl)c1ccc(-n2cnnn2)cc1,7.93
7,CC(C)(C)n1nnnc1C(c1ccc(C#N)cc1)N1CCCC2(CCCCC2)C1 (centres unmarked),0.66
8,Cl.O=C(COc1ccc(Cl)cc1)N(c1ccc(Cl)cc1)C1CN2CCC1CC2 (centres unmarked),-65.1
9,CCCCCCc1cc2cc(C(=O)Nc3ccccc3OC)c(=O)oc2cc1O,6.4
10,CCOc1ccc(S(=O)(=O)Nc2ccc3c(c2)OCO3)c2cccnc12,-2.48
11,CCC[C@@H](O)c1cc2cc(OC)c(OC)cc2c(=O)o1,-2.02
12,CC(NC(=O)c1cc(S(=O)(=O)N(C)C)ccc1Cl)c1ccc(-n2ccnc2)cc1 (centres unmarked),-76.8
13,COc1ccc(Cc2nnc(-c3ccccc3)o2)cc1,-25
14,CCc1cc(C(=O)Nc2ccc(OC)nc2)sc1C,-11.7
15,Cn1c(=O)[nH]c(=O)c2c1nc(NCCCO)n2Cc1ccc(F)cc1,8.25
16,CCN(CC)S(=O)(=O)c1ccc(-c2ccc(S(=O)(=O)N(CC)CC)cc2)cc1,4.25
17,O=C(NCc1cccnc1)Nc1cccc(NC(=O)NCc2cccnc2)c1F,18.5
18,COc1ccc(OCC(=O)NNC(=O)c2ccc(-c3ccccc3)cc2)cc1,17.3
19,COc1ccc(Nc2ncnc3c2cnn3Cc2ccccc2)cc1OC,-5.97

row,SMILES,"hERG current change (%, negative = inhibition) at 10uM [%]"
1,COc1cc(C)ccc1OCCOc1c(C)cc(Cl)cc1Cl,7.91
2,CCOc1cc(-c2nc3ccccn3c2NCC2CCCO2)ccc1O (centres unmarked),-64.7
3,Cc1nc(CSc2nc3[nH]ncc3c(=O)n2-c2ccccc2)cs1,-11.8
4,O=C(CSc1nnc2scc(-c3ccccc3)n12)Nc1ccc2c(c1)OCCO2,-12.8
5,Cc1cc(C(=O)CC#N)c(C)n1CC(F)(F)F,7.38
6,COc1ccc(NC(=O)N2CCCC2)cc1OC,-10.2
7,CN(C)S(=O)(=O)c1ccc2nnn(OCC(=O)NC34CC5CC(CC(C5)C3)C4)c2c1,-51.7
8,Cc1noc(C)c1C(=O)N1CCCC1,-0.487
9,c1cncc(CSc2nnc3ccc(-c4ccco4)nn23)c1,9.05
10,COC(CNC(=O)c1ccc(CS(=O)(=O)c2ccccc2)o1)OC,0.392
11,COc1ccc(C2=NOC(C(=O)Nc3ccc4c(c3)OCCO4)C2)c(OC)c1 (centres unmarked),3.96
12,CCOC(=O)C(Cc1ccccc1)C(=O)Nc1cccc(C)c1 (centres unmarked),-2.68
13,COc1ccc(N2CCN(C(c3cccs3)C(C)NS(=O)(=O)c3ccccc3)CC2)cc1 (centres unmarked),-8.34
14,COc1ccc(N2CC(C(=O)NCCc3c[nH]c4ccccc34)CC2=O)cc1 (centres unmarked),-11
15,CCCn1c(C)cc(/C=C(\C#N)C(=O)OCC(=O)Nc2cccc(S(N)(=O)=O)c2)c1C,7.01
16,COc1cccc(/C=N/n2c(CO)nc3ccccc32)c1OC,22.1
17,COc1ccc(N2C(=O)CCC2=O)cc1,21.3
18,O=C(NCCc1ccccc1)C1CCCN1S(=O)(=O)c1ccccc1 (centres unmarked),7.06
19,COCCCNC(=S)NNC(=O)c1csc(C)n1,16.5

row,SMILES,"hERG current change (%, negative = inhibition) at 10uM [%]"
1,CC1CCN(C(=O)CN2C(=O)NC3(CCC(C)CC3)C2=O)CC1 (centres unmarked),-31.8
2,O=C(Nc1ccnn1C1CCN(Cc2ccc(OC(F)F)cc2)CC1)C1CCCC1,-75.3
3,CCCCn1c(=O)[nH]c(=O)c2c1nc(-c1ccc(C)c([N+](=O)[O-])c1)n2CC,-15.2
4,Cc1ccc(N(CC(=O)NC2CCCCC2)C(=O)CNC(=O)c2ccco2)cc1F,-16.5
5,CC(OC(=O)c1ccc2noc(-c3ccccc3)c2c1)C(N)=O (centres unmarked),-3.7
6,CC(C)NC(=O)c1cc2cc(Br)ccc2oc1=O,10.2
7,CC(C)Cn1c(CN(C)Cc2ccccc2)nc2c1c(=O)n(C)c(=O)n2C,-13.6
8,CCCCCn1c(N)c(C#N)c2nc3ccccc3nc21,-22.7
9,CC1CCN(S(=O)(=O)c2ccc3c(c2)oc(=O)n3CC(=O)NCc2ccc3c(c2)OCO3)CC1,6.73
10,Cc1cc(C)cc(OCC(=O)N(C)CC(=O)Nc2ccc(Cl)c(C(F)(F)F)c2)c1,-0.909
11,COc1ccccc1N1C(=N)S/C(=C\c2ccc(-c3ccccc3C(=O)O)o2)C1=O,-5.97
12,Cc1ccc(-c2ccc(CCC(=O)O)n2Cc2ccco2)cc1,12.2
13,COc1cccc(CNC(=O)CCC2CCCN(C(=O)c3ccccc3N(C)C)C2)c1 (centres unmarked),0.174
14,Cc1cccc(C(C(=O)NC2CCCC2)N(C(=O)c2csnn2)C2CCCC2)c1 (centres unmarked),-5.73
15,CC(OC(=O)C1=Cc2ccccc2OC1)C(=O)NC1CCCC1 (centres unmarked),-18.7
16,CCN(CC)C(=O)c1sc(NC(=O)c2cc(-c3ccc(C)s3)nc3ccccc23)c(C(=O)OC)c1C,14.8
17,COc1ccc2c3n(nc2c1)CCN=C3c1ccc(Cl)cc1,10.3
18,CCCCCCCCn1c(=O)c(C(=O)OCC)c(O)c2ccccc21,14.5
